From the antibiotic and cytotoxicity screens of Wong et al. (2023)
The other results are listed elsewhere or left out.

What follows are molecules tested on HSkMC (human skeletal muscle cells) (assay: cytotoxicity call (relative viability < 0.9)). Conditions: 10 µM.
For `C[C@H]1CCCCO[C@@H](CN(C)C(=O)Nc2ccc(F)cc2)[C@@H](C)CN([C@@H](C)CO)C(=O)c2cc(NS(=O)(=O)c3ccc(F)cc3)ccc2O1`, the cytotoxicity call was “inactive”. In the case of `C[C@@H]1CCCCO[C@H](CN(C)Cc2ccccc2)[C@@H](C)CN([C@H](C)CO)C(=O)c2cc(NC(=O)c3ccccc3)ccc2O1`, the cytotoxicity call is reported as “inactive”. For `C[C@@H]1CCCCO[C@@H](CN(C)C(=O)NC2CCCCC2)[C@H](C)CN([C@H](C)CO)C(=O)c2cc(NS(=O)(=O)c3ccc(F)cc3)ccc2O1`, the cytotoxicity call was “inactive”. For `C[C@@H]1CN([C@H](C)CO)C(=O)Cc2cc(NC(=O)Nc3ccc(C(F)(F)F)cc3)ccc2O[C@@H]1CN(C)S(C)(=O)=O`, the cytotoxicity call was “inactive”. In the case of `C[C@H](CO)N1C[C@H](C)[C@H](CN(C)C(=O)Nc2cccc3ccccc23)Oc2ccc(NS(=O)(=O)c3ccc(Cl)cc3)cc2C1=O`, the cytotoxicity call is reported as “inactive”. In the case of `Nc1ncnc(NC[C@H]2CCCO2)c1[N+](=O)[O-]`, the cytotoxicity call is reported as “inactive”. For `CC(=O)N(O)CCCCCNC(=O)CC(O)(CC(=O)NCCCCCN(O)C(C)=O)C(=O)O`, the cytotoxicity call was “inactive”. With `COc1ccc(S(=O)(=O)N(C)C[C@@H]2OCCCC[C@@H](C)Oc3ccc(NC(=O)Nc4cccc5ccccc45)cc3C(=O)N([C@@H](C)CO)C[C@H]2C)cc1` the cytotoxicity call was “inactive”. In the case of `O=C(NC1(c2ccccc2)CC1)c1c(CN2CCC(N3CCCCC3)CC2)c(-c2cccc(C(F)(F)F)c2)nc2cc(Br)ccc12`, the cytotoxicity call is reported as “active”. `C[C@@H]1CN([C@@H](C)CO)C(=O)c2cc(NC(=O)Nc3ccc(C(F)(F)F)cc3)ccc2O[C@@H]1CN(C)C(=O)NC1CCCCC1` was tested, and the cytotoxicity call was “inactive”.
